84 molecules from PubChem BioAssay AID1346428 (National Center for Advancing Translational Sciences (NCATS), 2018) can be followed below.

Each structure is given as a SMILES string. Values joined by “and” are separate entries in the source; they are usually repeats but may differ in a detail not shown here. Equal values may be shown once. The whole screen tested about 48,000 compounds, of which about 1,200 (2.5%) were called active. Another 2% or so got no clear call; they are omitted.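 The calls were made as follows: active = activation of at least 60% and not above a set upper limit (about 1 call in 100 departs from these limits); inconclusive = activation of 40% to 60%, or above that upper limit; inactive = activation under 40%.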 This is one part of the list.

Sequence of UniProt O75388 (O75388 whole entry, looked up): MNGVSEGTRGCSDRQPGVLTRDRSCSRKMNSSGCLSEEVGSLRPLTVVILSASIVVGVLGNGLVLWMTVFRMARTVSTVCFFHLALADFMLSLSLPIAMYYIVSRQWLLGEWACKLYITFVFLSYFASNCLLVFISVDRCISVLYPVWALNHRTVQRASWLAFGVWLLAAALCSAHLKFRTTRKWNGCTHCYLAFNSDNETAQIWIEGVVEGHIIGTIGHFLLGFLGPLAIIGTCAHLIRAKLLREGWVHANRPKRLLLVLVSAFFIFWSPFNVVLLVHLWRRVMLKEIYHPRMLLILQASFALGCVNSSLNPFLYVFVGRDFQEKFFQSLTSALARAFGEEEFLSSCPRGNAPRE

For this assay, the target named is Probable G-protein coupled receptor 32 (Homo sapiens) (UniProt O75388). Put plainly: qHTS for Agonists of Human Resolvin D1 Receptor DRV1. Also: 0% is about no effect. The conditions noted are these: CHO-K1 GPR32 beta-arrestin PathHunter luminescence, 90 min; at 76.9 µM; stronger effect = higher value; zero percent set by DMSO-only wells. In a few lines:
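CHO-K1 cells stably expressing ProLink-tagged GPR32 and Enzyme Activator-tagged beta-arrestin were seeded at 2,500 cells/well overnight, exposed to compounds for 90 min at 37 °C, then read by beta-Gal complementation chemiluminescence after 1 h detection reagent.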
In the case of `CCOC(=O)c1ccc(NC(=O)c2ncn(-c3ccccc3)n2)cc1`, the activation is inactive: -2.76%. Next, `Cc1ccc(-c2nc(-c3cc4cccc(OCc5cccc(C)c5)c4oc3=O)no2)cc1`: inactive: 19.1%; `O=C(NC1CCN(Cc2ccccc2)CC1)c1ccc(Cn2c(=O)c3ccccc3n(Cc3ccccc3)c2=O)cc1`: inactive: 10.2%. `CCc1c(C)nc2nncn2c1Nc1ccc(C(C)C)cc1`: the activation is inactive: 0.995%. Next, `Cc1ccc(NC(=O)/C(C#N)=C/c2cc(C)n(-c3ccc(F)cc3)c2C)cc1C`: inactive: 0.148%. Under `CCc1ccc(NC(=O)Cn2c3ncccc3c(=O)n2-c2ccc(C)c(C)c2)cc1` stands inactive: -12.9%; under `O=C(c1ccc2c(c1)N(Cc1ccccc1F)C(=O)c1ccccc1S2=O)N1CCN(c2ccccc2)CC1` (centres undefined), inactive: 12.1%. Next, `Cc1ccc(CNC(=O)c2ccc(-n3cnc4cccnc43)cc2)cc1`: inactive: 8.82%; `CCOc1ccccc1NC(=O)NCCn1c(=O)oc2ccc(C)cc21`: inactive: 20.4%. Regarding `COc1ccc(-c2nc(-c3ccccc3)c(-c3ccc(O)cc3)[nH]2)cc1`, the activation was inactive: -9.43%. Consider `COc1ccccc1CNS(=O)(=O)c1cc2c3c(c1)CCN3C(=O)CC2`, for which the activation is inactive: 12.5%. With `COC(=O)c1ccccc1NC(=O)Cn1nnc2sc(-c3ccccc3)cc2c1=O`, the activation was inactive: 47%. Take `CCc1ccc(-c2nn(CC(=O)NC3CCCC3)c3c2cnc2ccc(F)cc23)cc1`: the activation is inactive: -13.2%.

For the molecule `COc1ccccc1C(=O)NCCn1cc(SCc2ccccc2Cl)c2ccccc21`, the activation was inactive: -1.41%.

In the case of `COc1ccccc1C(=O)Nc1nc(-c2ccccc2)ns1`, the activation was inactive: 2.96%. Under `COc1ccc(Cn2c(C(=O)O)c(CNC3CCCCCC3)c3ccc(OC)cc32)cc1` stands inactive: 39.9%; under `O=C(/C=C/c1ccc(F)cc1)Nc1nc2n(n1)C(c1ccc(Cl)cc1)C=C(c1ccccc1)N2` (centres undefined), inactive: -13.2%. For `COc1ccc(OC)c(CNC(=O)CCn2c(=O)c3cccn3c3ccc(F)cc32)c1`, the activation is inactive: -6.34%. Under `Cc1ccc2sc(N3CCN(C(=O)CCS(=O)(=O)c4ccc(F)cc4)CC3)nc2c1C` stands inactive: 21.8%. Under `Cc1noc(/C=C/c2ccco2)c1S(=O)(=O)N1CCC(C(=O)Nc2ccc(F)c(Cl)c2)CC1` stands inactive: -15%; under `COc1ccc(-n2ncc3c(NCCC4=CCCCC4)ncnc32)cc1`, inactive: 46.3%. Next, `CCC1=Nc2cc(C(=O)NC3CCCC3)ccc2Sc2ccc(Br)cc21`: inactive: -19.1%.

With `Cc1ccc(N2CC(C(=O)Nc3ccc(Br)cc3)CC2=O)cc1` (centres undefined), the activation was inactive: 3.79%. With `Cc1ccccc1-c1nc(CS(=O)(=O)CC(=O)NCc2cccc(Cl)c2)c(C)o1`, the activation is inactive: 12.3%.

With `COc1ccc(C(=O)n2nc(-c3ccco3)nc2NCc2cccs2)cc1`, the activation was inactive: -32.2%. For `C=Cc1ccc(CN2C(=O)N(c3cccc(Cl)c3)S(=O)(=O)c3ccccc32)cc1`, the activation was inactive: -6.68%. Under `Cc1ccc2c(=O)c(C(=O)c3cccc(Cl)c3)cn(CC(=O)NCc3ccc(F)cc3)c2n1` stands inactive: 2.74%; under `COc1cc(NC(=O)Cn2ncc3c([nH]c4ccc(C)cc43)c2=O)cc(OC)c1OC`, inactive: 3.5%; under `COc1cc(C(=O)Nc2ccc3oc(-c4ccccc4)nc3c2)cc(OC)c1OC`, inactive: 2.16%. Take `COc1ccc(NC(=O)CSc2nnc(-c3cccs3)o2)cc1`: the activation is inactive: -6.15%. `CCOc1ccccc1Nc1cc(-c2ccccc2)nc(C)n1`: the activation is inactive: -11.8%. In the case of `O=C1Nc2ccc(S(=O)(=O)Nc3ccccc3O)c3cccc1c23`, the activation was inactive: -19.8%.

With `Cn1c2ccccc2c2c(C(=O)N3CCN(c4ccc(F)cc4)CC3)cn(C3CCCCC3)c(=O)c21`, the activation was inactive: -27.2%. Under `COc1cc(Cl)c(C)cc1NC(=O)CSc1ncc(S(=O)(=O)c2ccc(C(C)(C)C)cc2)c(=O)[nH]1` stands inactive: -10.1%; under `CC(C)(Oc1ccc(C2CC2(Cl)Cl)cc1)C(=O)O` (centres undefined), inactive: 18.5% and inactive: -6.24%; under `CC(C)CCN(Cc1ccco1)C(=O)c1cc2c(Cl)nc3ccccc3c2s1`, inactive: -12.4%. Under `Cc1ccc(S(=O)(=O)CC(=O)Nc2sc3c(c2C#N)CCCCC3)cc1` stands inactive: 45.1%; under `CCOc1ccc(C2Nc3ccccc3-c3nnc(SCc4ccccc4)nc3O2)cc1OC` (centres undefined), inactive: 8.57%. Next, `COc1ccc(-c2noc(CSCC(=O)Nc3cccc(C(F)(F)F)c3)n2)cc1OC`: inactive: -13.9%; `CCCOc1ccc(-c2nn(-c3ccccc3)cc2C2NC(=O)NC(C)=C2C(=O)OC)cc1C` (centres undefined): inactive: -28.6%. For the molecule `CCC(=O)N1CCc2cc(Br)cc(S(=O)(=O)CCC(=O)NCCc3ccc(Cl)cc3)c21`, the activation was inactive: -15.7%. Next, `Cc1ccccc1CNC(=O)C1CCCN(S(=O)(=O)N(C)c2ccc(F)cc2)C1` (centres undefined): inactive: 1.2%; `CCOc1ccccc1NC(=O)Nc1nnc(N2CCCCCC2)s1`: inactive: -6.14%; `CCc1cccc(NC(=O)c2ccc(CN3C(=O)C(C)=C(c4ccc(OC)cc4)S3(=O)=O)cc2)c1`: inactive: -7.76%. Under `O=C(NCCc1csc(-c2cccc(F)c2)n1)c1cccs1` stands inactive: 46.3%; under `O=C(Cc1ccccc1)Nc1sc2c(c1C(=O)Nc1ccc(Cl)cc1)CCCC2`, inactive: -21.8%. Under `N#C/C(=C\c1ccc(Cl)cc1)c1nc2ccccc2[nH]1` stands inactive: 6.31%; under `Cc1cccc(NC(=O)CSc2nc3c([nH]c4ccccc43)c(=O)n2C)c1C`, inactive: -11.8%; under `CCOc1ccc(NC(=O)c2ccc(-c3nc(COc4ccccc4)c(C)o3)cc2)cc1`, inactive: -7.61%. With `Brc1ccccc1-c1ccccc1`, the activation was inactive: 11.2%. Next, `COc1ccccc1NC(=O)CSc1oc(-c2cccs2)nc1S(=O)(=O)c1ccc(Br)cc1`: inactive: -7.07%; `CCOC(=O)c1ccc(NS(=O)(=O)c2ccc(Br)s2)cc1`: active: 65.6%. Consider `COc1ccc(NCc2cc3cc4c(cc3n(CC(=O)Nc3ccc(C)cc3)c2=O)OCO4)cc1`, for which the activation was inactive: -33.8%. Under `COc1ccccc1CNC(=O)Cn1ncc2c3ccccc3n(Cc3ccccc3C)c2c1=O` stands inactive: -7.13%; under `CC(NC(=O)Nc1ccccc1C(F)(F)F)c1c(-n2cccc2)sc2c1CCCC2` (centres undefined), inactive: -6.71%. For `COc1ccc(-c2nc(SCC(=O)Nc3ccc4c(c3)OCO4)c(-c3ccc(OC)cc3)[nH]2)cc1`, the activation is inactive: 3.06%. In the case of `CCOc1ccc(S(=O)(=O)N2CCN(c3c(C)cccc3C)CC2)c2ccccc12`, the activation was inactive: 5.77%. Under `CCOc1ccccc1NC(=O)C1CCN(S(=O)(=O)c2ccccc2)CC1` stands inactive: -8.27%; under `CN(C(=O)CSc1nc2c(c(=O)[nH]1)CCCC2)c1ccccc1`, inactive: 12.4%; under `Cc1cc(C)cc(OC(=O)c2snnc2C)c1`, inactive: -2.08%. For the molecule `Cc1cc(C)c(NC(=O)c2cc3c(=O)n4ccccc4nc3n2C)c(C)c1`, the activation was inactive: 3.99%. Under `Cc1cc(-c2nc3ncccc3o2)ccc1NC(=O)c1ccc(Br)cc1` stands inactive: -0.891%; under `CC(C)c1ccc(S(=O)(=O)Nc2ccc3oc4c(c3c2)C(=O)CC(C)(C)C4)cc1`, inactive: 20.9%; under `Cc1ccc2c(=O)cc(CSc3nnc(-c4ccccc4)n3C)[nH]c2c1C`, inactive: 5.39%. Next, `CCOC(=O)Cn1c(=O)n(C2CCCCC2)c2nc(-c3ccc(Cl)cc3)nc(C(N)=O)c21`: inactive: 13.4%.

Consider `CC1CCN(C(=O)c2cnn(-c3cccc(Cl)c3)c2C2CCN(C(=O)OC(C)(C)C)CC2)CC1`, for which the activation was inactive: -8.11%. Under `COc1cc(OC)cc(-n2nnc(-c3nc(-c4ccccc4Cl)no3)c2N)c1` stands inactive: -26.5%. As for `CC(=O)N1CCc2c(sc3c2c(=O)n(-c2ccccc2C)c(=O)n3Cc2cccc(F)c2)C1`, the activation is inactive: -7.66%. For `CC(=O)Nc1ccc(S(=O)(=O)N2CCC(Oc3ccc(-n4cnnn4)cc3)CC2)cc1`, the activation was inactive: 10.4%.

As for `Cc1c(Cl)cccc1NC(=O)c1ccc(C(=O)Nc2cccc(Cl)c2C)cc1`, the activation is inactive: 4.42%. Next, `COCCCNC(=O)c1sc2nc(C)c(C(=O)Nc3ccc(C)cc3C)c(-c3ccc(Cl)cc3)c2c1N`: inactive: 24%; `CC(=O)N1c2ccccc2C(=O)C1N1CCN(c2ccccc2)CC1` (centres undefined): inactive: -31.6%. Next, `CSc1ccc(CNC(=O)c2ccccc2NC(=O)c2nsc3ccccc23)cc1`: inactive: -6.95%; `COc1ccc(NC(=O)c2c(-c3ccccc3)c(-c3ccccc3)nn(C)c2=O)c(OC)c1`: inactive: -27.8%. As to `CN(CC1(C)CCCO1)S(=O)(=O)c1ccc(Cl)c(S(N)(=O)=O)c1` (centres undefined), the activation is inactive: -19.9%. Regarding `COc1ccc(OCC(=O)NCC(c2ccc(Cl)cc2)N2CCCCC2)cc1` (centres undefined), the activation is inactive: -14.8%. Next, `C[C@@H](O)[C@H]1C(=O)N2C(C(=O)O)=C(SCCN=CN)C[C@H]12`: inactive: -12.7% and inactive: -1.78%; `O=C(Nc1ccccc1-c1nc2ccccc2s1)c1cc(Cl)cc(Cl)c1`: inactive: 7.8%. For the molecule `Cc1c(CNC(C)CCc2ccccc2)c(C(=O)O)c(C)n1Cc1ccc(F)cc1Cl` (centres undefined), the activation was inactive: -15.4%.

For `CC1=C(C(=O)O)N2C(=O)[C@@H](NC(=O)[C@H](N)c3ccc(O)cc3)[C@H]2SC1`, the activation is inactive: 5.39%.

Turning to `COc1ccc(CN2COc3ccc4c(oc(=O)c5ccccc54)c3C2)cc1OC`, the activation is inactive: -23.5%.

On to `Cc1ccccc1Nc1c(-c2ccc(N3CCOCC3)cc2)nc2ncccn12`, for which the activation was inactive: -26.5%. For `CCCCOc1ccc(C(=O)N(Cc2ccc(C(C)C)cc2)C2CCS(=O)(=O)C2)cc1` (centres undefined), the activation was inactive: -40.6%. Consider `COC(=O)c1scc(-c2ccccc2)c1S(=O)(=O)Nc1cccc(C)c1C`, for which the activation is inactive: -23.6%.
